PubChem BioAssay AID624418 (National Center for Advancing Translational Sciences (NCATS), 2012)
Among all 410,000 compounds or so, about 530 (0.13%) were called active. This list was built around the results that the source calls inconclusive (neither active nor inactive); the mix of calls is not that of the screen. Calls follow the shape of the dose curve; as a rule, active = well fitted inhibition curve with a large enough effect; inconclusive = small, poorly fitted or top-dose-only effect, or another doubt; inactive = no such curve, though single readings can be large or run the other way. Where the call is inconclusive, the potency comes from a doubtful curve fit.

Assay: qHTS of GLP-1 Receptor Inverse Agonists: Cytotox Screen
Details: HEK293 cAMP-luciferase reporter cells, luminescence, 24 h; series mostly up to 38.3 µM
Outline: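 Seeding density was 200 cells/uL; after overnight-length (12 h) culture, 23 nL compounds went on for 24 h at 37 °C. Readout used a luciferase detection reagent, luminescence taken after 12 min at room temperature.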
Potency is read from the fitted curve at half-maximal effect.

For `O=C(CSc1cccc[n+]1[O-])NC(=O)c1ccc(OC(F)F)cc1`, which Potency is on record?
The Potency was inconclusive: 28.2 µM [inhibitor, single point].

For `CCOc1ccc(N=c2cc(-c3ccc(OC)cc3)oc3ccccc23)cc1`, which Potency is on record?
Its Potency is inconclusive: 12.6 µM [inhibitor, single point].

For `CS(=O)(=O)c1nc(-c2ccc(F)cc2)cc(C(F)(F)F)n1`, which Potency is on record?
The Potency was inconclusive: 10 µM [inhibitor, partial curve, poor fit].

Which Potency does the source give for `COc1ccc(Nc2ncnc3scc(-c4ccc(OC)cc4)c23)cc1` here?
Its Potency is inconclusive: 4.47 µM [inhibitor, partial curve].

With `Cn1ncc2c(NCc3ccc(Cl)cc3)ncnc21` as the molecule, how does the Potency read?
The Potency was “inactive”.

Which Potency does the source give for `CCc1cc(C(=O)NNC(=O)CCl)sc1C` here?
The Potency was inconclusive: 8.91 µM [inhibitor, partial curve, poor fit].

Which Potency does the source give for `O=C(NC(=S)Nc1ccc2c(c1)OCCO2)c1ccccc1F` here?
The Potency was inconclusive: 28.2 µM [inhibitor, single point].

Which Potency does the source give for `O=C(Nc1nnc(-c2ccc(Cl)cc2)o1)Nc1ccccc1Cl` here?
Its Potency is “inactive”.

For `CCOC(=O)N1CCN(C2=C(NS(=O)(=O)c3ccc(Br)cc3)C(=O)c3ccccc3C2=O)CC1`, which Potency is on record?
Its Potency is inconclusive: 7.94 µM [inhibitor, partial curve, poor fit].

For `CN(Cc1ccccc1)C(=O)[C@@H]1CCCN1C(=O)[C@@H]1CCCN1C(=O)c1cccc2ccccc12`, which Potency is on record?
Its Potency is “inactive”.

With `OC1(c2ccccc2)CC(c2ccccc2)c2ccccc2O1` (centres undefined) as the molecule, how does the Potency read?
The Potency was inconclusive: 10 µM [inhibitor, partial curve, poor fit].

For `COc1ccc(/C=C2\Sc3ccc(C(=O)NCCCN4CCCC4)cc3N(C)C2=O)cc1OC`, which Potency is on record?
Its Potency is inconclusive: 10 µM [inhibitor, single point].

For `Cc1cc(C)c(C#N)c(SCc2cn3c(C)cccc3n2)n1`, which Potency is on record?
The Potency was “inactive”.

With `OCC[C@@H]1C[C@H](O)[C@@H](O)[C@@]2(Cc3ccccc3CO2)O1` as the molecule, how does the Potency read?
The Potency was inconclusive: 28.2 µM [inhibitor, single point].

For `COc1ccc(NS(=O)(=O)c2cc(NC(=O)c3sccc3C)ccc2N2CCOCC2)cc1`, which Potency is on record?
Its Potency is inconclusive: 2.82 µM [inhibitor, partial curve, poor fit].

For `COc1ccc(S(=O)(=O)N2CCCCC2)cc1NC(=O)CSc1nnc(C2CC2)n1C`, which Potency is on record?
The Potency was “inactive”.

With `C/C(CCc1ccc2c(c1)OCO2)=N\NC(=O)c1ccccc1` as the molecule, how does the Potency read?
The Potency was “inactive”.

For `CCCc1ccc(OCC(O)CN2CCc3ccccc3C2)cc1` (centres undefined), which Potency is on record?
Its Potency is “inactive”.

Which Potency does the source give for `O=C(Nc1c(C(=O)N2CCN(c3ccc(F)cc3)CC2)oc2ccccc12)c1c(F)cccc1F` here?
Its Potency is “inactive”.

With `CC1(C)CC(=O)C2=C(C1)NC1=C(C(=O)c3ccccc31)C2c1ccccc1` (centres undefined) as the molecule, how does the Potency read?
The Potency was inconclusive: 11.2 µM [inhibitor, single point].

With `O=C(NN1C(=O)/C(=C/c2cccs2)SC1=S)c1ccccc1` as the molecule, how does the Potency read?
Its Potency is inconclusive: 17.8 µM [inhibitor, partial curve, poor fit].

Which Potency does the source give for `CCC(=O)N1c2ccc(S(=O)(=O)N3CCN(c4ccc([N+](=O)[O-])cc4)CC3)cc2CC1C` (centres undefined) here?
The Potency was “inactive”.

Which Potency does the source give for `O=C(Cn1cc(SCc2ccc(C(F)(F)F)cc2)c2ccccc21)N1CCCCCC1` here?
The Potency was “inactive”.

Which Potency does the source give for `CCOC(=O)N1CCN(C(=O)c2ccc3[nH]c(C)c(C)c3c2)CC1` here?
Its Potency is “inactive”.

Which Potency does the source give for `COc1ccccc1OCCn1c(=S)[nH]c2ccccc21` here?
The Potency was inconclusive: 11.2 µM [inhibitor, single point].

Which Potency does the source give for `CCN(C(=O)c1cc2cc3ccc(C)cc3nc2o1)c1ccc(OC)cc1` here?
The Potency was inconclusive: 2.51 µM [inhibitor, full curve].

For `CN(C)CCNC(=O)c1ccc(COCC(F)(F)F)cc1`, which Potency is on record?
The Potency was inconclusive: 1.26 µM [inhibitor, full curve, poor fit].

For `Cc1ccc(N=Nc2c(C)[nH]n(C(N)=S)c2=O)cc1C`, which Potency is on record?
The Potency was inconclusive: 0.794 µM [inhibitor, full curve, poor fit].

For `COc1cc(C(=O)Nc2ccc3c(c2)OCCO3)ccc1OC(C)C`, which Potency is on record?
The Potency was “inactive”.

Which Potency does the source give for `O=C(NC1CCCCC1)C(c1ccccn1)N(C(=O)Cc1cccs1)c1ccc(Cl)cc1` (centres undefined) here?
The Potency was inconclusive: 11.2 µM [inhibitor, partial curve, poor fit].

With `CC(C)(C)NCc1cc(Br)ccc1OCc1cccs1` as the molecule, how does the Potency read?
Its Potency is inconclusive: 11.2 µM [inhibitor, single point].

For `COc1ccc(N2CCN(C(CNC(=O)C(=O)NCCC3=CCCCC3)c3ccco3)CC2)cc1` (centres undefined), which Potency is on record?
Its Potency is inconclusive: 14.1 µM [inhibitor, single point].

With `C=CCn1c(-c2ccc(Cl)cc2)cnc1SC(C)C(N)=O` (centres undefined) as the molecule, how does the Potency read?
The Potency was “inactive”.

Which Potency does the source give for `O=C(Cn1c2c(c(-c3ccccc3)cc1=O)CCCC2)N1CCCCCC1` here?
Its Potency is “inactive”.

For `CCCCc1ccc(NC(=O)Cn2nnc3sc4c(c3c2=O)CCC(C)C4)cc1` (centres undefined), which Potency is on record?
The Potency was “inactive”.

Which Potency does the source give for `CCOC(=O)C1=C(COC(=O)CCOc2ccc(C)cc2)NC(=O)NC1C` (centres undefined) here?
The Potency was inconclusive: 22.4 µM [inhibitor, single point].

For `CCOc1cccc(C2Nc3ccccc3-c3cc(C)nn32)c1O` (centres undefined), which Potency is on record?
The Potency was “inactive”.

Which Potency does the source give for `COc1ccccc1N1C(=O)CSC1=NC(=O)c1ccccc1` here?
The Potency was “inactive”.

With `O=C(N/N=C/c1cc2ccccc2nc1Cl)/C(=C/c1cccs1)NC(=O)c1ccccc1` as the molecule, how does the Potency read?
Its Potency is inconclusive: 6.31 µM [inhibitor, partial curve, poor fit].

Which Potency does the source give for `C=C(C)COc1ccc(-c2[nH]ncc2-c2ccccc2OC)c(O)c1` here?
Its Potency is inconclusive: 10 µM [inhibitor, partial curve, poor fit].

With `CCN(CC)c1ccc(NC(=O)/C=C/c2cc(Br)ccc2OC)cc1` as the molecule, how does the Potency read?
Its Potency is inconclusive: 22.4 µM [inhibitor, single point].

Which Potency does the source give for `CCn1c(-c2csc(-c3ccccc3)n2)n[nH]c1=S` here?
The Potency was inconclusive: 7.94 µM [inhibitor, single point].

For `COc1ccc(CC(=O)NC2CC(=O)N(c3cccc(F)c3)C2)cc1` (centres undefined), which Potency is on record?
Its Potency is “inactive”.

For `NCCCn1c(C(=O)c2cc(Cl)c(N)c(Cl)c2)c2ccc([N+](=O)[O-])cc2[n+]1[O-]`, which Potency is on record?
Its Potency is inconclusive: 7.94 µM [inhibitor, partial curve, poor fit].

Which Potency does the source give for `NC(=O)c1cccc2c1-c1ccccc1/C2=N/NC(N)=S` here?
The Potency was inconclusive: 10 µM [inhibitor, single point].

With `Clc1ccc(OCCOCCN2CCc3ccccc3C2)c(Cl)c1` as the molecule, how does the Potency read?
The Potency was inconclusive: 28.2 µM [inhibitor, single point].

Which Potency does the source give for `O=C(NC(=S)Nc1ccccc1F)c1ccc(Br)o1` here?
The Potency was inconclusive: 28.2 µM [inhibitor, single point].

Which Potency does the source give for `Cc1ccc(O)c(N=Nc2nccs2)c1` here?
Its Potency is inconclusive: 8.91 µM [inhibitor, partial curve].

With `O=C1/C(=C\c2c(NCCOCCO)nc3ccccn3c2=O)SC(=S)N1Cc1ccco1` as the molecule, how does the Potency read?
The Potency was inconclusive: 28.2 µM [inhibitor, single point].

Which Potency does the source give for `CCN1CCN(CCCNC(=O)c2ccc3c(c2)N(Cc2ccccc2)CCS3)CC1` here?
The Potency was inconclusive: 8.91 µM [inhibitor, partial curve, poor fit].

With `COCCCN1C(=O)C(=O)/C(=C(/O)c2ccc(S(=O)(=O)N3CCCCC3)cc2)C1c1ccc(O)c(OC)c1` (centres undefined) as the molecule, how does the Potency read?
The Potency was “inactive”.

Which Potency does the source give for `CC(C)S(=O)(=O)c1oc(-c2ccc(F)cc2)nc1S(=O)(=O)c1ccccc1` here?
Its Potency is inconclusive: 11.2 µM [inhibitor, partial curve, poor fit].

Which Potency does the source give for `COc1ccc(-c2cc(NCc3ccccn3)n3ncnc3n2)cc1` here?
Its Potency is “inactive”.

For `CN1/C(=C\P(=O)(N(C)C)N(C)C)C(C)(C)c2ccccc21`, which Potency is on record?
Its Potency is inconclusive: 14.1 µM [inhibitor, single point].

For `Cc1nnc(N2CCCC(C(=O)Nc3cccc(C(F)(F)F)c3)C2)c2nn(-c3ccccc3)c(C)c12` (centres undefined), which Potency is on record?
Its Potency is inconclusive: 28.2 µM [inhibitor, single point].

For `COc1ccc(/C=N/NC(=O)CCn2cnc(-c3ccccc3)c2-c2ccccc2)cc1OC`, which Potency is on record?
The Potency was “inactive”.

Which Potency does the source give for `Cc1ccc(C(=O)Nc2nnc(C3=COCCO3)o2)cc1C` here?
The Potency was inconclusive: 22.4 µM [inhibitor, single point].

With `COc1ccc2[nH]c(C)c(CCNC(=S)Nc3cccc(C)c3)c2c1` as the molecule, how does the Potency read?
The Potency was “inactive”.

Which Potency does the source give for `Cc1ccc(NC(=O)c2ccc(NS(=O)(=O)c3cccc4cccnc34)cc2)cc1` here?
Its Potency is inconclusive: 31.6 µM [inhibitor, single point].

Which Potency does the source give for `CCN(CC)CCNC(=O)C(=O)NCC(c1cccnc1)N1CCN(c2ccccc2)CC1` (centres undefined) here?
The Potency was “inactive”.

For `Brc1ccc(C=Nc2ccc(Nc3ccccc3)cc2)s1`, which Potency is on record?
The Potency was inconclusive: 15.8 µM [inhibitor, partial curve, poor fit].

With `Cc1cc(Sc2ccc(Cl)cc2)nc2ccccc12` as the molecule, how does the Potency read?
Its Potency is “inactive”.

Which Potency does the source give for `Cc1cc(C)n(-c2ccc(NC(=O)C3CCCCN3Cc3cccc4c3OCO4)cc2)n1` (centres undefined) here?
The Potency was inconclusive: 11.2 µM [inhibitor, single point].

Which Potency does the source give for `CCC(CC)C(=O)c1c[nH]c(C(=O)NN)c1` here?
The Potency was inconclusive: 28.2 µM [inhibitor, partial curve, poor fit].

For `Cc1ccc(C)c(Oc2cc(NC(=O)CCCn3nc(C)c([N+](=O)[O-])c3C)cc([N+](=O)[O-])c2)c1`, which Potency is on record?
The Potency was “inactive”.

With `COCCOC(=O)C1=C(C)NC2=C(C(=O)CCC2)C1c1ccc(N(C)C)cc1` (centres undefined) as the molecule, how does the Potency read?
The Potency was inconclusive: 22.4 µM [inhibitor, single point].

For `C[C@@H]1CN([C@@H](C)CO)C(=O)Cc2cc(NC(=O)Nc3cccc4ccccc34)ccc2O[C@@H]1CN(C)Cc1ccc(C(F)(F)F)cc1`, which Potency is on record?
Its Potency is inconclusive: 0.501 µM [inhibitor, full curve, poor fit].

With `COc1ccc(CCNC(=O)c2cc(S(=O)(=O)N3CCCCC3)ccc2Cl)cc1` as the molecule, how does the Potency read?
Its Potency is “inactive”.

For `CC1=NN(C(=O)c2csc(C(C)C)c2)C(O)(C(F)(F)F)C1` (centres undefined), which Potency is on record?
The Potency was inconclusive: 22.4 µM [inhibitor, partial curve, poor fit].
